# Source: PMC4336329 (PLoS ONE, 2015)
# In all, about 310,000 compounds went through this assay and about 2,200 (0.71%) showed an effect of 50% or more. Effects have a minus sign here. This is one part of the list.
# Biological target: human ether-à-go-go-related gene (hERG) potassium channel (human, UniProt Q12809)
# Assay: primary screen, population patch clamp on CHO cells stably expressing hERG
# Chain of human ether-à-go-go-related gene (hERG) potassium channel (Q12809 whole entry, looked up): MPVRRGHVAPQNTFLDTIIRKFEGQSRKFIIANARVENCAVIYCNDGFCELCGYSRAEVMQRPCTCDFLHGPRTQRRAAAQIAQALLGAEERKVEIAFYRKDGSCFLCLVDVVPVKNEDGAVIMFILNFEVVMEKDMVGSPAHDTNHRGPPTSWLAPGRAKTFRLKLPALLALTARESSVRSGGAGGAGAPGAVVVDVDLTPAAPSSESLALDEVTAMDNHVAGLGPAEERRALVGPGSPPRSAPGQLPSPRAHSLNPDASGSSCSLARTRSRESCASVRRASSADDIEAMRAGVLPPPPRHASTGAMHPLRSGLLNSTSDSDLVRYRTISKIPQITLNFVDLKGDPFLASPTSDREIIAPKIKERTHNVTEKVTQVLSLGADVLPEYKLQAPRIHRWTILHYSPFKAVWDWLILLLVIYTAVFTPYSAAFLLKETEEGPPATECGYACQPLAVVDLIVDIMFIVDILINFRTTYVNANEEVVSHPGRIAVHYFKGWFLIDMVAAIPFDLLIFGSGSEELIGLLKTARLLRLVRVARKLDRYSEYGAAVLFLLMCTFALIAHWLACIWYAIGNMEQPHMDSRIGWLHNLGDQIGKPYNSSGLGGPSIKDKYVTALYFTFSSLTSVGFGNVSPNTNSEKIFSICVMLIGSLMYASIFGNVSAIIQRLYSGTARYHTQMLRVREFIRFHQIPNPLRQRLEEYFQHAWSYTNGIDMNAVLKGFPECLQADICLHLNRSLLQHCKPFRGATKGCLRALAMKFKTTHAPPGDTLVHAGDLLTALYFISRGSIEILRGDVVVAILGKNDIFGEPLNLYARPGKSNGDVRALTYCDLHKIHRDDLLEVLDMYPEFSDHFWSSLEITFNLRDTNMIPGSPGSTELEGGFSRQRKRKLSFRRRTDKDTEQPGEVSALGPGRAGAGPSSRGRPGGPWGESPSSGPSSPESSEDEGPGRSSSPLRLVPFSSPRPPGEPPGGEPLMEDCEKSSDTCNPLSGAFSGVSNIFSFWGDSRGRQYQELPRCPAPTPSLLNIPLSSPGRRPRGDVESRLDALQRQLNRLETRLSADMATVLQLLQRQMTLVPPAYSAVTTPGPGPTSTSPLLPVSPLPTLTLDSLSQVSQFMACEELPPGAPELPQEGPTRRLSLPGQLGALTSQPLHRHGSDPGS
row,Structure (SMILES),"hERG current change (%, negative = inhibition) at 1uM"
1,COc1ccc(/C=N/NC(=O)c2ccccc2F)cc1CN1CCN(c2ccc(F)cc2)CC1,-64.4%
2,Cc1cccc(N2C(=O)C(O)=C(C(=O)c3cccs3)C2c2ccc(F)cc2)n1 (stereo not shown),10.5%
3,COC(=O)c1ccc(CN2CCc3ccc(NC(=O)c4ccncc4)cc3C2)cc1,9.37%
4,Cc1n[nH]c(C)c1Sc1ccccc1N,8.84%
5,CCOC(=O)CNc1c(-c2ccc(O)cc2)nc2ccc(Cl)cn12.Cl,-13.3%
6,Cc1nn(Cc2c(F)cccc2Cl)c(C)c1NC(=O)C1CC1,3.23%
7,CC(=O)Nc1ccc2c(COC(=O)CC3Sc4ccccc4NC3=O)cc(=O)oc2c1 (stereo not shown),12.4%
8,CC(=O)N(C)Cc1ccc(C(=O)CCl)cc1,9.71%
9,COc1ccc(CNC(=O)Cn2nc([N+](=O)[O-])c(Br)c2C)cc1OC,4.71%
10,O=C(O)c1cc(NC(=O)c2ccc(Cl)c([N+](=O)[O-])c2)cc(C(=O)O)c1,7.11%
11,Clc1ccc(-c2cnc(Oc3ccccc3)nc2)cc1,7.11%
12,O=C(Nc1cccnc1)c1ccc(CSc2ccccc2)cc1,4.9%
13,CCOC(=O)C1(CCc2ccccc2)CCN(C(=O)C2CCOCC2)CC1,-21.2%
14,CN(C)S(=O)(=O)c1cccc(C(=O)OCC(=O)Nc2sccc2C#N)c1,8.48%
15,Cn1nc(C(F)(F)F)c(-c2ccccc2)c1NC(=O)CSCC(=O)O,10.2%
16,CCOC(=O)C1CCN(c2ccc([N+](=O)[O-])cc2S(=O)(=O)N2CCOCC2)CC1,-2.21%
17,CC(CCc1ccccc1)NC(=O)c1ccc(C(=O)NC(C)CCc2ccccc2)cc1 (stereo not shown),5.63%
18,COC(=O)C1=C(c2ccc(F)cc2OCc2ccccc2)C[C@@H]2CC[C@H]1N2C(=O)N1CCC(O)CC1,12.1%
19,CCNc1nc(NCC)nc(N(C#N)CCOc2ccccc2)n1,-13.7%
20,COC(=O)c1ccc(/C=C2/C(=O)Oc3ccccc32)cc1,16.8%
21,N#Cc1c(-c2ccccc2)c(-c2ccccc2)nn(CC(=O)NNC(=O)Nc2ccc(Cl)c(Cl)c2)c1=O,-4.54%
22,O=C(CCC(=O)N1CCC2(CC1)OCCO2)Nc1nnc(C(F)(F)F)s1,12.9%

row,Structure (SMILES),"hERG current change (%, negative = inhibition) at 1uM"
1,Cc1cc(-c2csc(NC(=O)c3cccc(S(=O)(=O)N(C)C)c3)n2)c(C)n1-c1ccccc1,9.26%
2,COc1ccc(CCN(C)C2CCCN(S(C)(=O)=O)C2)cc1OC (stereo not shown),6.5%
3,Cn1c(Cn2cnc([N+](=O)[O-])n2)nnc1SCC(=O)Nc1cccc(Cl)c1,5.55%
4,COC(=O)/C(C#N)=C1/C=Cc2ccccc2N1,6.5%
5,CCOC(=O)c1[nH]c2ccc(OC)cc2c1NC(=O)CN1CCc2ccccc2C1,-2.6%
6,O=C(OCC(=O)N1CCCCC1)c1cc(NS(=O)(=O)c2ccc(Cl)c([N+](=O)[O-])c2)ccc1O,12.5%
7,Cc1c(C(=O)N2CCC[C@H]2C(N)=O)oc2c(F)cccc12,14.7%
8,S=c1[nH]cc(-c2ccccc2)n1-c1ccccc1,11.1%
9,Cc1ccc(Nc2c(-c3ccccc3O)nc3ncccn23)cc1,8.42%
10,Cn1c(O)c(/C=C/C=Nc2ccccc2)c(=O)n(C)c1=S,6.02%
11,COc1ccc2ccc(O)c(CN3CCN(S(=O)(=O)c4cc([N+](=O)[O-])ccc4C)CC3)c2c1,3.82%
12,Cc1c(OCC(F)(F)F)ccnc1CSc1nc2ccccc2[nH]1,15.8%
13,COc1cccc(C(=O)C2CCCN(Cc3cccn3-c3ccccn3)C2)c1 (stereo not shown),-84%
14,O=c1c2c(n3nnnc3n1Cc1ccccc1)-c1ccccc1CC21CCCC1,7.31%
15,CCN(CC)CCN1C(=O)C(O)=C(C(=O)c2cccs2)C1c1ccc(C)o1 (stereo not shown),16.1%
16,CCCn1c(CCc2ccccc2)nnc1SCC(=O)N1CCOCC1,10.8%
17,COC(=O)c1ccc(-c2nc(CN3CCCN(C(=O)c4ccco4)CC3)c(C)o2)cc1,-15%
18,COc1ccc2nc(NC(=O)c3ccoc3C)sc2c1,17.6%
19,Cc1ccc2oc(-c3cccc(NC(=O)c4ccccn4)c3)nc2c1,13%
20,COc1cc(C(=O)NCCC(=O)NCCN2CCOCC2)cc(OC)c1OC,0.546%
21,O=C(CN1C(=O)NC2(CCCC2)C1=O)OCc1cccc(Br)c1,2.52%
22,Cc1ccc(NC(=O)COc2ccc(-n3cnnn3)cc2)cc1C,6.87%

row,Structure (SMILES),"hERG current change (%, negative = inhibition) at 1uM"
1,COc1ccc(-n2nc([N+](=O)[O-])c(=NCCc3ccc(OC)c(OC)c3)n2O)cc1,3.61%
2,COc1ccc(-c2nn(-c3ccccc3)cc2/C=C/C(=O)N2CCN(c3ccccn3)CC2)cc1,11%
3,Cn1nc(C(=O)OCC(=O)Nc2ccc(Cl)cc2Cl)c2ccccc2c1=O,15.4%
4,Cc1ccc(NC(=O)CN2C(=O)N/C(=C/c3ccccc3OCc3cccc(C(=O)O)c3)C2=O)cc1,18.1%
5,Cc1[nH]n(-c2ccccc2)c(=O)c1C=Nc1ccc(S(=O)(=O)Nc2nccs2)cc1,12.2%
6,OC1(c2ccc3c(c2)OCO3)CCN(Cc2ccc(F)cc2)CC1,-25%
7,CC(C)COc1ccc(CNC(=S)Nc2ccccc2)cc1Cl,9.44%
8,COc1ccc(CC(=O)NCCS(=O)(=O)N2CCN(c3ccccc3)CC2)cc1OC,0.961%
9,O=C(CN1C(=O)c2cccc3cccc1c23)N1CCN(c2ccccc2)CC1,5.53%
10,COc1ccccc1OCC(=O)N/N=C/c1cccc2cccnc12,4.53%
11,O=C(CN1C(=O)CC(c2ccco2)Sc2ccccc21)NCC1CCCO1 (stereo not shown),-2.8%
12,O=C(NCc1ccccc1)[C@@H]1C[C@H]1[C@@H](NP(=O)(c1ccccc1)c1ccccc1)c1ccccc1,18.1%
13,O=S1(=O)CCN(Cc2csc(-c3cccs3)n2)CC1,7.56%
14,COc1ccc(/C=N/NC(=O)c2cccc(NC(=O)c3ccc(F)cc3)c2)c(C(=O)O)c1OC,15.3%
15,CN(C(=O)c1ccccc1C(=O)OCC(=O)NCc1ccccc1)C1CCCCC1,1.26%
16,CC(=O)c1c(C)[nH]c(C(=O)Nc2ccc3c(c2)OCCO3)c1C,13.6%
17,CN1C(=O)CC(N2CCN(C(=O)CN3CCCC3)CC2)C1=O (stereo not shown),-8.6%
18,O=C(NCCc1nc2ccccc2[nH]1)/C(=C/c1ccc2c(c1)OCO2)NC(=O)c1ccc(Cl)cc1Cl,-73.9%
19,CCOC(=O)Cn1c(=O)oc2cc(S(=O)(=O)N3CCN(c4ccccn4)CC3)ccc21,6.6%
20,Cc1cnc(NC(=O)c2ccco2)s1,13.9%
21,CC(C)N(Cc1ccccc1)C(=S)NC1CCCCC1,8.23%
22,Cc1ccc(CN2CCC(n3nccc3NC(=O)CCCc3ccccc3)CC2)o1,4.19%

row,Structure (SMILES),"hERG current change (%, negative = inhibition) at 1uM"
1,CCC1(C)Cc2ccccc2-c2nc(NCCO)n(-c3ccc(C)cc3)c(=O)c21 (stereo not shown),-0.202%
2,Cl.N=c1sccn1CC(=O)Nc1ccc2c(c1)CCC2,0.818%
3,C/C(=N\NC(=O)c1ccc(Br)cc1)c1cccc(NC(=O)c2cccnc2)c1,6.03%
4,Cc1ccc2c(N)c(C(=O)c3ccccc3)sc2n1,11.6%
5,COc1ccc(/C=C/C(=O)OCC(=O)NC2CCS(=O)(=O)C2)cc1 (stereo not shown),8.9%
6,Cc1ccc(C(=O)NCC(=O)NCC(c2cccs2)N2CCOCC2)cc1 (stereo not shown),14%
7,O=C(COc1ccccc1Cl)Nc1ccccc1C(=O)N1CCCCC1,13%
8,O=C(NCCc1ccccc1)C(=O)NCC1OCCCN1S(=O)(=O)c1cccs1 (stereo not shown),9.51%
9,O=C(NNS(=O)(=O)c1ccc(F)cc1)c1cnccn1,12.6%
10,CCOc1cc(/C=N/NC(=O)CCn2nnc3ccccc32)ccc1O,9%
11,Cc1ccc(Nc2nc(NCCO)c3ccccc3n2)cc1C.Cl,14.5%
12,CN1C(=O)NC(c2cccc(F)c2)C2=C1CC(C)(C)CC2=O (stereo not shown),-0.0235%
13,O=C(c1cc(-c2ccc3c(c2)OCO3)on1)N1CCOCC1,8.23%
14,N/C(CCS(=O)(=O)c1ccc(Cl)cc1)=N\OC(=O)c1ccc(Cl)cc1,9.88%
15,C=CCn1c(COc2ccccc2F)nnc1SCC(=O)Nc1cc2oc3ccccc3c2cc1OC,8.2%
16,CC1CCc2[nH]c3ccc(C(=O)NCCCOC(C)C)cc3c2C1 (stereo not shown),6.32%
17,COc1ccc(NC(=O)Nc2c(O)ccc3ccccc23)cc1,9.84%
18,CC(=O)c1cccc(NC(=O)COC(=O)c2cccs2)c1,2.15%
19,COc1ccc(/C=N/n2cncn2)cc1CSc1ccccn1,4.78%
